About 2,200 (0.71%) of roughly 310,000 compounds showed an effect of 50% or more. Effects have a minus sign here. The list shows a part of the results.
Biological target: human ether-à-go-go-related gene (hERG) potassium channel (human, UniProt Q12809)
Assay: primary screen, population patch clamp on CHO cells stably expressing hERG

Chain of human ether-à-go-go-related gene (hERG) potassium channel (Q12809 whole entry, looked up): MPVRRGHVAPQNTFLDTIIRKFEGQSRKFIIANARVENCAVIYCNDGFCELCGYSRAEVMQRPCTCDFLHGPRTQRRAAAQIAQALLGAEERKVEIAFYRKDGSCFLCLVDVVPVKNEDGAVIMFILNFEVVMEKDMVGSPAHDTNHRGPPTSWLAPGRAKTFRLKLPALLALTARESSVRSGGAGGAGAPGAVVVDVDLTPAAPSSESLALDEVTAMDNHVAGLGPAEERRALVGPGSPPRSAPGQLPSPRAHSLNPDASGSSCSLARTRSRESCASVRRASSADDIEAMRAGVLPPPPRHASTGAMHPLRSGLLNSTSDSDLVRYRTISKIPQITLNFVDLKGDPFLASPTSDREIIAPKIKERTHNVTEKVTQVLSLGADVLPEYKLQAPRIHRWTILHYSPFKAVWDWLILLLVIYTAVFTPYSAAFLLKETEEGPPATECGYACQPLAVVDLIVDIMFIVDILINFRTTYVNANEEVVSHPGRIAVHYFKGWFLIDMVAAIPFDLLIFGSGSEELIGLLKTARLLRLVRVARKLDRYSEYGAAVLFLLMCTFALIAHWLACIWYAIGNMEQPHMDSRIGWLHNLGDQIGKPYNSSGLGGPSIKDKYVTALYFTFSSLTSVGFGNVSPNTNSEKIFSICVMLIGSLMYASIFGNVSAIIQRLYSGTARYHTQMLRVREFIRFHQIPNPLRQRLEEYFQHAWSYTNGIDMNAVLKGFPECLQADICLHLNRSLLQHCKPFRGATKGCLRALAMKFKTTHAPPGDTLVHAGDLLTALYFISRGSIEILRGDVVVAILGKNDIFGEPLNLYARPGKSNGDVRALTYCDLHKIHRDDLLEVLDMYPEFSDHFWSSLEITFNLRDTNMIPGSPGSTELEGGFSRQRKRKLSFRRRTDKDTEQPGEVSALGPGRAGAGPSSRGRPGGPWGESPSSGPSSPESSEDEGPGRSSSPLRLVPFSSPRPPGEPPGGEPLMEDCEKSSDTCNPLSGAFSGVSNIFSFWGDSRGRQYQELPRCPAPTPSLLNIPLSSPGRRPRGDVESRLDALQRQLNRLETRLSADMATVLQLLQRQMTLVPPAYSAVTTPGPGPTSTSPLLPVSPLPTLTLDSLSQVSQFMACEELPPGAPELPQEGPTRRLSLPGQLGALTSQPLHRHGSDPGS

| SMILES | hERG current change (%, negative = inhibition) at 1uM [%] |
| --- | --- |
| C[C@H]1OC[C@@H](C[N+](C)(C)C)O1.[I-] | 19.7 |
| CCc1ccc(OCC(=O)Nc2ccc(CN3CCCCC3)cc2)cc1 | -0.953 |
| Cc1ccc2[nH]c(=O)c(CN(Cc3ccco3)S(=O)(=O)c3c(C)ccc4nsnc34)cc2c1 | 15.4 |
| Cc1nc2sc(C(c3ccc(F)cc3)N3CCOCC3)c(O)n2n1 (stereo not drawn) | 13.3 |
| Cl.N=c1ccn(Cc2cccc(F)c2)cc1 | 16.3 |
| Cc1cc(-c2ccccc2)nc2cc(C(=O)NCc3ccco3)nn12 | -6.59 |
| Cc1cc(NC(=O)Cn2cnc3c(nnn3-c3cccc(F)c3)c2=O)no1 | 8 |
| Cc1ccc(Cl)cc1NC(=O)C1CCCN1S(=O)(=O)c1ccc(-c2ccc(=O)[nH]n2)s1 (stereo not drawn) | -14.7 |
| O=C(c1cccc(NS(=O)(=O)c2ccc(F)cc2)c1)N1CCN(c2ccccc2)CC1 | 12.5 |
| COc1ccc(C(=O)Nc2ccc(Cl)cc2C(=O)NCCN2CCOCC2)cc1 | 3.99 |
| O=C(CCC(=O)Nc1ccccc1Cl)NNC(=O)Nc1cccc([N+](=O)[O-])c1 | -1.45 |
| C=CCNC(=S)/C(=C(/[O-])c1ccccc1Br)[n+]1ccccc1 | 21.4 |
| Cc1[nH]n(-c2ccccc2)c(=O)c1N=Nc1ccc(C(=O)O)cc1 | 7.11 |
| CN(c1ccccc1)S(=O)(=O)c1cccc(C(=O)Nc2nccs2)c1 | -2.66 |
| CC1CCc2onc(C(=O)NCc3ccco3)c2C1 (stereo not drawn) | 7.7 |
| Cc1noc(C)c1COc1cccc(C(=O)Nc2cccnc2)c1 | -0.547 |
| O=C(COC(=O)Cc1ccccc1)Nc1cc(S(=O)(=O)N2CCOCC2)ccc1N1CCCC1 | 2.17 |
| CC(=O)Nc1ccc(NC(=O)CN(C)CCC#N)cc1 | 11.3 |
| COc1ccc(N=C2SCC(=O)N2CCc2ccc(OC)c(OC)c2)cc1 | 11.7 |
| O=c1oc2cc(O)c(Cl)cc2c2ccccc12 | 14.2 |
| CCN(CC)C(=O)Cn1cc(S(=O)(=O)CC(=O)NCCc2ccccc2)c2ccccc21 | 9.31 |
| Cc1nn(C)cc1S(=O)(=O)Nc1ccc(F)c(F)c1 | -1.03 |
| Cc1ccc(S(=O)(=O)N/N=C/c2c(F)cccc2Cl)cc1 | 5.82 |
| COc1ccccc1-n1cc(CN2CCN(CC(C)C)C(CCO)C2)cn1 (stereo not drawn) | 5.53 |
